Data on 87 molecules can be found in PubChem BioAssay AID360 (National Center for Advancing Translational Sciences (NCATS), 2006).

Screen size: about 48,000 compounds; about 550 (1.1%) were called active. Not shown: some 4% with an inconclusive outcome. No stated cut-off is given here; in the data, active means potency below about 15 µM; inconclusive means mostly about 16 µM to 33 µM; inactive means weaker than that. The list shows a part of the results.
Potency means the concentration at half of the fitted maximal effect.

Chain of UniProt P04062 (P04062 whole entry, looked up): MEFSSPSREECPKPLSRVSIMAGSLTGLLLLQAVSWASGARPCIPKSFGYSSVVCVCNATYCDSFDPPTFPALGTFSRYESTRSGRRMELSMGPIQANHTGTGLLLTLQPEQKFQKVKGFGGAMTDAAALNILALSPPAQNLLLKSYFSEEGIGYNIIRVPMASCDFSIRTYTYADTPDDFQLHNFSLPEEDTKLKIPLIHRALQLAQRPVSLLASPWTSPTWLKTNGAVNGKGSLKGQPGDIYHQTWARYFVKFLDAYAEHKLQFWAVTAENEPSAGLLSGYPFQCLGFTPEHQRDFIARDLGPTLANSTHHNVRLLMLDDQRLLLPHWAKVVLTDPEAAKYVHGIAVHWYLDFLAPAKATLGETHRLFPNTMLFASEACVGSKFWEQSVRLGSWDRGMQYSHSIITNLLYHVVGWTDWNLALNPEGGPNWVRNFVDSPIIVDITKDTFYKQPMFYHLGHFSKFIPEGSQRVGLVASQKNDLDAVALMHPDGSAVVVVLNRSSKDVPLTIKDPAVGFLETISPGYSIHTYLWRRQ

The target of the assay is Lysosomal acid glucosylceramidase (Homo sapiens) (UniProt P04062). Nature of the assay: Glucocerebrosidase.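 Further: the screen sought inhibitors.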 The note with it: purified enzyme, resorufin glucoside fluorescence (screen aimed at inhibitors), 20 min. The method in brief:
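Compounds titrated against 0.2 nM normal enzyme, 30 uM resorufin beta-D-glucopyranoside substrate, citrate/phosphate buffer with taurocholate and tween-20, pH 5.9. Reaction ran 20 min at room temperature; fluorescence (Ex 548/Em 600) gave AC50.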
For `Cn1nc(-c2ccc(N3CCOCC3)c(NS(=O)(=O)c3ccccc3)c2)c2ccccc2c1=O`, the Potency was inactive: > 76.9 µM.
With `O=C(NC12CC3CC(CC(C3)C1)C2)N1CCN(C(=O)C2CCCO2)CC1` (configuration not stated), the Potency was inactive: > 76.9 µM.
For `O=C(CSc1nnc(-c2ccccn2)n1Cc1ccccc1)Nc1ccc2c(c1)OCO2`, the Potency was inactive: > 76.9 µM.
In the case of `CCSc1nnc(NC(=O)c2csc(C)c2)s1`, the Potency was inactive: > 76.9 µM.
On to `COC(=O)c1ccc(CSc2nnc(NCc3ccccc3)s2)o1`, for which the Potency is inactive: > 76.9 µM.
Regarding `COCCN(C(=O)Cn1nnc2ccccc21)C(C(=O)NC1CCCC1)c1cccc(OC)c1OC` (configuration not stated), the Potency is inactive: > 76.9 µM.
The figure for `Clc1ccccc1-c1nn2c(-c3ccncc3)nnc2s1` is inactive: > 76.9 µM; for `CC(C)Sc1nc(NCc2ccco2)c2c3c(sc2n1)COC(C)(C)C3` it is inactive: > 76.9 µM.
For `CCn1nnc(NC(=O)CSc2ccc(Cl)cc2)n1`, the Potency was inactive: > 76.9 µM.
Consider `COc1ccc(-c2cc(C(=O)N(C)Cc3ccccc3)no2)cc1OC`, for which the Potency was inactive: > 76.9 µM.
As for `CC(C)C(=O)N(c1ccc2oc(=O)sc2c1)S(=O)(=O)c1cccs1`, the Potency is inactive: > 76.9 µM.
The figure for `O=C(NC1CCCc2ccccc21)C1CCN(S(=O)(=O)c2cnc[nH]2)CC1` (configuration not stated) is inactive: > 76.9 µM.
The figure for `O=C(c1ccc(C(=O)N2CCOCC2)nc1)N1CCOCC1` is inactive: > 76.9 µM; for `Cc1nc(SCn2nnc3ccccc3c2=O)c2c(C)c(C)sc2n1` it is inactive: > 76.9 µM; for `O=C(Cn1nnc(-c2ccc(CN3CCOCC3)cc2)n1)N1CCCc2ccccc21` it is inactive: > 76.9 µM.
For the molecule `c1nc(N2CCNCC2)c2sc3nc(N4CCOCC4)c4c(c3c2n1)CCC4`, the Potency is inactive: > 76.9 µM.
Turning to `COc1cc(C(=O)Nc2cccc(-c3nc4ncccc4o3)c2C)cc(OC)c1OC`, the Potency was inactive: > 76.9 µM.
In the case of `CCCC(=O)Nc1cc(C)c(NC(=O)c2ccncc2)cn1`, the Potency is inactive: > 76.9 µM.
For `Cc1ccc(CS(=O)(=O)CCC(=O)NCc2cccs2)cc1`, the Potency is inactive: > 76.9 µM.
The figure for `O=C(CCC(=O)N1CCCc2ccccc21)N1CCN(S(=O)(=O)c2ccccc2)CC1` is inactive: > 76.9 µM; for `CCn1c(Cn2nnc(-c3ccccc3)n2)nnc1SCC(=O)N1CCOCC1` it is inactive: > 76.9 µM; for `O=C(NCC1CCCO1)C1CCN(C(=O)c2ccc(Br)cc2)CC1` (configuration not stated) it is inactive: > 76.9 µM.
As for `O=C(C1CCN(c2nnc(-n3cccc3)s2)CC1)N1CCN(c2cccc(C(F)(F)F)c2)CC1`, the figure is inactive: > 76.9 µM; as for `O=C(CSc1nnnn1C1CCCCC1)NCc1ccc2c(c1)OCO2`, inactive: > 76.9 µM.
`O=C(NC1CC2CCC1C2)C1CCN(S(=O)(=O)c2ccc(-c3nn[nH]n3)cc2)CC1` (configuration not stated): the Potency was inactive: > 76.9 µM.
For the molecule `CCOC(=O)C1CCCN(C(=O)c2cc3ncc(Br)cn3n2)C1` (configuration not stated), the Potency is inactive: > 76.9 µM.
`CCCCn1c(N)c(N(CCOC)C(=O)CSc2nc3ccc(C)cc3[nH]2)c(=O)[nH]c1=O`: the Potency is inactive: > 76.9 µM.
For `O=C(C1CCCO1)N1CCC(c2nc3ccccc3[nH]2)CC1` (configuration not stated), the Potency was inactive: > 76.9 µM.
As for `Cc1ccc2nc(N3CCN(Cc4nnnn4Cc4ccccc4)CC3)c(C#N)cc2c1`, the figure is inactive: > 76.9 µM; as for `O=C(Cn1cnc2c(cnn2-c2ccccc2)c1=O)N1CCN(c2ccc(F)cc2)CC1`, inactive: > 76.9 µM.
For the molecule `CCOc1cccc2cc(C(=O)N3CCc4ccccc43)c(=O)oc12`, the Potency is inactive: > 76.9 µM.
In the case of `COc1ccc(CCNC(=O)C2CCCN(C(=O)N(C)C)C2)c(OC)c1` (configuration not stated), the Potency is inactive: > 76.9 µM.
For the molecule `O=C(O)c1cc2cc(Cl)cc(Cl)c2oc1=O`, the Potency was inactive: > 76.9 µM.
Consider `O=C(CSc1nccc(=O)[nH]1)N1CCCc2ccccc21`, for which the Potency was inactive: > 76.9 µM.
The figure for `O=C(O)c1c(-c2ccccc2)c2oc3ccccc3c2[nH]c1=O` is inactive: > 76.9 µM; for `N#CC1=C(N)Oc2c(ccc3cccnc23)C1c1cccnc1` (configuration not stated) it is inactive: > 76.9 µM.
For the molecule `O=C(Nc1nncs1)c1c(F)c(F)c(F)c(F)c1F`, the Potency was inactive: > 76.9 µM.
On to `S=c1[nH]nc(C23CC4CC(CC(C4)C2)C3)n1Cc1ccco1`, for which the Potency is inactive: > 76.9 µM.
The figure for `Cc1ccc(OCC(=O)N2CCCCC2)c(Br)c1` is inactive: > 76.9 µM.
As for `O=S(=O)(NC1CC1)c1ccc(S(=O)(=O)N2CCCC(c3nc(-c4cccnc4)no3)C2)cc1` (configuration not stated), the Potency is inactive: > 76.9 µM.
The figure for `Cn1c(=O)n(C)c2cc(NS(C)(=O)=O)ccc21` is inactive: > 76.9 µM; for `COc1ccc(Oc2c(C)oc3cc(OC(=O)N4CCOCC4)ccc3c2=O)cc1` it is inactive: > 76.9 µM; for `Cn1cc(C(=O)NCCc2ccccc2)c(=O)c2cc(S(=O)(=O)N3CCOCC3)ccc21` it is inactive: > 76.9 µM.
`Oc1ccc(COCc2ccccc2)c2cccnc12`: the Potency is inactive: > 76.9 µM.
In the case of `COC(=O)c1ccc2nc(C(F)(F)F)[nH]c2c1`, the Potency was inactive: > 76.9 µM.
The figure for `COc1ccccc1NC(=O)c1oc2ccccc2c1NC(=O)c1cc(OC)c(OC)c(OC)c1` is inactive: > 76.9 µM; for `O=C(COC(=O)C1(c2ccccc2F)CCCC1)N1CCN(C(=O)c2ccco2)CC1` it is inactive: > 76.9 µM; for `C/C(=C\C(=O)Nc1nccs1)c1ccccc1` it is inactive: > 76.9 µM.
As for `C=CCNc1nc(Nc2ccc(OC)cc2OC)nc(OCC)n1`, the Potency is inactive: > 76.9 µM.
Consider `Cc1nc(SCc2cccc(F)c2)[nH]c(=O)c1C#N`, for which the Potency was inactive: > 76.9 µM.
On to `CCc1ccc2[nH]c(=O)c(CN(Cc3ccc4c(c3)OCO4)C(=O)c3ccco3)cc2c1`, for which the Potency is inactive: > 76.9 µM.
The figure for `COc1ccc(C(=O)Cn2c(=O)c(CCC(=O)O)nn3c4ccccc4nc23)cc1OC` is inactive: > 76.9 µM.
Consider `COc1ccc(-c2c(C)n([O-])c(C)c(C)[n+]2=O)cc1OC`, for which the Potency was inactive: > 76.9 µM.
In the case of `COC(=O)Cc1c(C)c2ccc(OCC(=O)N3CCOCC3)cc2oc1=O`, the Potency is inactive: > 76.9 µM.
`O=c1[nH]c(=S)[nH]nc1Cc1ccccc1`: the Potency is inactive: > 76.9 µM.
For `Cc1cc(C)nc(N2CCCC(C(=O)Nc3cc(F)ccc3C)C2)n1` (configuration not stated), the Potency is inactive: > 76.9 µM.
Consider `CCc1ccccc1N(CC)C(=O)c1cn(C)c(=O)c2cc(OC)c(OC)cc12`, for which the Potency was inactive: > 76.9 µM.
As for `CCNC(=O)C1CN(S(=O)(=O)c2ccccc2)CCN1S(=O)(=O)c1ccccc1` (configuration not stated), the figure is inactive: > 76.9 µM; as for `O=C(C1=C(O)C(=O)N(CCN2CCOCC2)C1c1cccs1)c1cc2ccccc2o1` (configuration not stated), inactive: > 76.9 µM; as for `Cc1cc(Cl)c(S(=O)(=O)NCc2ccncc2)cc1OCC(N)=O`, inactive: > 76.9 µM.
Regarding `Cc1nn(-c2ccccc2)c2c1C(c1c(C)[nH]c(C#N)c1C)C(C#N)=C(N)O2` (configuration not stated), the Potency is active: 11 µM.
Take `COCC(=O)NCc1nc2ccccc2n1Cc1ccccc1F`: the Potency was inactive: > 76.9 µM.
In the case of `O=C(Nc1nncs1)c1ccc(S(=O)(=O)c2ccccc2)cc1`, the Potency was inactive: > 76.9 µM.
As for `COc1cc2cc(CN(Cc3nnnn3Cc3ccco3)C3CCCCC3)c(=O)[nH]c2cc1OC`, the Potency was inactive: > 76.9 µM.
As for `Cc1cc(C(=O)CN2C(=O)NC(C)(c3cccc(Br)c3)C2=O)c(C)n1Cc1ccco1` (configuration not stated), the Potency was inactive: > 76.9 µM.
Take `CN=C1SC(CC(=O)Nc2cccc(C(F)(F)F)c2)C(=O)N1C` (configuration not stated): the Potency was inactive: > 76.9 µM.
With `CCOC(=O)CNC(=O)c1cc(C)oc1C`, the Potency is inactive: > 76.9 µM.
The figure for `CCCC(=O)c1cc2cc(Cl)ccc2oc1=O` is inactive: > 76.9 µM; for `CCC(C)(C)n1nnnc1C(c1ccc(N(C)C)cc1)N1CCN(C2CCCCC2)CC1` (configuration not stated) it is inactive: > 76.9 µM; for `N#CCCN(Cc1cccnc1)S(=O)(=O)c1ccc(S(=O)(=O)NC2CCCCC2)cc1` it is inactive: > 76.9 µM.
`c1ccc2nc(-c3nc4ccccc4[nH]3)ccc2c1`: the Potency is inactive: > 76.9 µM.
Take `CCSc1nc2c(c(=O)[nH]c(=O)n2C)n1CC(O)COc1ccccc1C` (configuration not stated): the Potency was inactive: > 76.9 µM.
For `CN1CCN(CCCNc2nc3ccccc3c3nc(-c4ccccc4)nn23)CC1`, the Potency was inactive: > 76.9 µM.
With `COCCOC(=O)C1=C(N)OC2=C(C(=O)CCC2)C1c1cccnc1` (configuration not stated), the Potency is inactive: > 76.9 µM.
Consider `O=C(COC(=O)CN1C(=O)c2ccccc2C1=O)Nc1ncc(Cl)cc1Cl`, for which the Potency was inactive: > 76.9 µM.
As for `O=C(CC1N=C2c3ccccc3N=C(SCc3ccc(Cl)cc3)N2C1=O)NCc1ccco1` (configuration not stated), the Potency was inactive: > 76.9 µM.
As to `O=C(NCc1ccc(F)cc1)c1cc(-c2cccs2)on1`, the Potency was inactive: > 76.9 µM.
`CCOC(=O)C1=C(CSc2nccn2C)NC(=O)NC1c1ccc2c(c1)OCO2` (configuration not stated): the Potency is inactive: > 76.9 µM.
For the molecule `CCOC(=O)C12CNC(=O)C(C(=O)OCC)(CNC1=O)C2`, the Potency was inactive: > 76.9 µM.
For `COc1cc(NS(=O)(=O)c2ccc(C)cc2)ccc1-n1cnnn1`, the Potency was inactive: > 76.9 µM.
As for `CCSc1nc(O)c(C2OC(=O)c3c2ccc(OC)c3OC)c(=O)n1CC` (configuration not stated), the Potency was inactive: > 76.9 µM.
As for `Cc1ccc(Cl)cc1N1CCN(C(=O)C2CCN(S(=O)(=O)c3c(C)nn(C)c3C)CC2)CC1`, the figure is inactive: > 76.9 µM; as for `OCC1OC(n2nnc3ccccc32)C(O)C(O)C1O` (configuration not stated), inactive: > 76.9 µM; as for `CN1CCCN(C(=O)c2ccc(Cl)c(S(=O)(=O)N(C)c3ccccc3)c2)CC1`, inactive: > 76.9 µM.
As to `Cc1ccc(N2CCN(c3ccc(C)cc3)C2c2ccncc2)cc1`, the Potency is inactive: > 76.9 µM.
`CCOC(=O)CC(=O)CSc1nc2nc(C)cc(C)n2n1`: the Potency is inactive: > 76.9 µM.
For the molecule `COc1ccc(NC(=O)N2CCCCC2)cc1`, the Potency is inactive: > 76.9 µM.
